According to PubChem BioAssay AID588855 (National Center for Advancing Translational Sciences (NCATS), 2011):
In all, about 410,000 compounds went through this assay and about 5,000 (1.2%) were called active. The inconclusive results got no clear call from the source; some entries with a clear call stand among them for comparison. The call rests on the fitted dose curve; in most records, active means well fitted inhibition curve with a large enough effect; inconclusive means small, poorly fitted or top-dose-only effect; inactive means no such curve, though single readings can be large or run the other way. A potency beside an inconclusive call is a rough fit, not a confirmed value. Some structures have more than one record in an assay (separate samples or runs), and their calls can disagree.

assay: qHTS for Inhibitors of TGF-b; conditions: HepG2 CAGA-GFP TGF-b/SMAD3 reporter, GFP fluorescence, 18 h, TGF-beta stimulated, 500 pg/mL final; series mostly up to 46.1 µM; further: nearly all actives have a fitted effect of over 65% in size
Method in brief: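 Per well, imaged GFP fluorescence of HEPG2 CAGA-GFP cells gives the signal; cells get compound, then TGF-beta (500 pg/mL final), 18 h at 37 degrees C; %Activity versus -TGF-beta and +DMSO controls.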
Potency means the concentration at half of the fitted maximal effect; tags describe the fitted curve by direction and shape.

SMILES	Potency
Cc1cc(C)c2c(N)c3ccccc3nc2n1	active: 11.2 µM
COc1cc(C(=O)N2CCN(C(=O)c3ccco3)CC2)cc(OC)c1OC	inconclusive: 2.82 µM [inhibitor, single point]
COc1cccc(-c2cnc3c(NC=O)cc(-c4ccc(N(C)C)cc4)cn23)c1	inconclusive: 12.6 µM [inhibitor, partial curve, poor fit]
Cc1c(C(=O)N2CCOCC2)oc2c1-c1nn(CC(=O)NCc3cccc(Cl)c3)cc1CC2	inactive
O=C(/C=C/C=C/c1ccccc1)CC1(O)C(=O)N(CCc2ccccc2)c2ccccc21 (configuration not stated)	inconclusive: 25.1 µM [inhibitor, single point]
O=C(NNc1nc(Nc2ccccc2)nc(N2CCOCC2)n1)Nc1ccc(Cl)cc1	inconclusive: 12.6 µM [inhibitor, partial curve, poor fit]
COc1ccc(OCc2cc(C(=O)NCCN3CCCc4ccccc43)no2)c(Cl)c1	inconclusive: 35.5 µM [inhibitor, single point]
COc1ccccc1NC(=O)COc1ccc(-c2nn(C)c(=O)c3ccccc23)cc1	active: 7.94 µM
CC(=O)N1c2ccc(S(=O)(=O)Nc3ccc(Cl)cc3C)cc2CC1C (configuration not stated)	inconclusive: 35.5 µM [inhibitor, single point]
O=C1CCCC(=O)C1C(=O)C1CCN(S(=O)(=O)c2ccccc2)CC1	inconclusive: 28.2 µM [inhibitor, partial curve, poor fit]
Oc1c(Cl)cc(Cl)cc1C(C#Cc1ccccc1)N1CCOCC1 (configuration not stated)	inconclusive: 35.5 µM [inhibitor, single point]
Cc1cc(NC(=O)CSc2nnc(C)o2)no1	inactive
CN1\C(=C/C=C/C=C/C=[N+](C)C)C(C)(C)c2ccccc21	inconclusive: 35.5 µM [inhibitor, single point]
C[C@@H](CC#N)CN1CC[C@H](C(C)(C)C)CCC1=O	inactive
Cc1ccc(-n2cc(-c3ccc([N+](=O)[O-])cc3)[nH]c2=S)c(C)c1	inconclusive: 11.2 µM [inhibitor, single point]
CCOc1ccc(C)cc1S(=O)(=O)n1nc(C)cc1C	inactive
CCCCN1C(=O)C(O)(CC(=O)c2ccc(C)cc2C)c2cc(Br)ccc21 (configuration not stated)	inconclusive: 22.4 µM [inhibitor, partial curve, poor fit]
CC(=O)SC(C[N+](=O)[O-])c1cn(C(C)=O)c2ccccc12 (configuration not stated)	inconclusive: 12.6 µM [inhibitor, single point]
Cc1ccc(C(=O)NCC(=O)NC23CC4CC(CC(C4)C2)C3)cc1	inactive
O=C(Nc1nc2ccc(SC(F)F)cc2s1)c1ccc(NS(=O)(=O)c2ccc(F)c(F)c2)cc1	inconclusive: 35.5 µM [inhibitor, single point]
CCOc1ccccc1Nc1cc(C)nc2ccc(C)cc12	inconclusive: 35.5 µM [inhibitor, single point]

SMILES	Potency
COc1ccc(C(O)c2nc3ccccc3n2C(C)C)cc1 (configuration not stated)	inactive
CCN(C(=O)CSc1nnc(-c2cccc(F)c2)n1N)c1c(N)n(Cc2ccccc2)c(=O)[nH]c1=O	inconclusive: 35.5 µM [inhibitor, single point]
O=C(c1ccco1)N1CCN(C(=O)C(Sc2ccccc2)c2ccccc2)CC1 (configuration not stated)	inconclusive: 31.6 µM [inhibitor, single point]
O=C(CSc1n[nH]c(-c2ccco2)n1)Nc1ccccc1	inconclusive: 15.8 µM [inhibitor, single point]
COCCCNC(=S)N1CCCN(c2nc3cc(C)ccc3cc2C#N)CC1	inconclusive: 12.6 µM [inhibitor, single point]
O=C(COc1cccc2c1CCN(Cc1ccc(Br)cc1)C2=O)NCc1ccco1	inconclusive: 6.31 µM [inhibitor, partial curve]
CC(C)COc1ccc(C(=O)Nc2cc(-c3ccccc3)no2)cc1	inactive
COc1cccc(N2CCN(S(=O)(=O)c3cc(-c4cc(C)no4)ccc3C)CC2)c1	inconclusive: 0.631 µM [inhibitor, full curve, poor fit]
CC(=O)C1=C(S(=O)(=O)c2ccc(C)cc2)CS(=O)(=O)C1	inconclusive: 22.4 µM [inhibitor, single point]
CS(=O)(=O)c1ccc(C(=O)OCC(=O)N(CCc2ccccc2)Cc2ccccc2)cc1	inactive
CC(C)C[C@H](NC(=O)c1nc[nH]c1C(=O)N1CCN(C(=O)OC(C)(C)C)CC1)C(=O)OCc1ccccc1	inconclusive: 11.2 µM [inhibitor, partial curve]
O=C(NCCCCc1ccccc1)c1cccc(NC(=O)C2CCC2)c1	inactive
Cc1noc(C)c1CSCC(=O)Nc1cc(S(=O)(=O)N2CCOCC2)ccc1OCC(F)(F)F	inconclusive: 3.98 µM [inhibitor, full curve, poor fit]
Cc1cc(C)cc(OCC(=O)N2CCC(c3nc4ccccc4s3)CC2)c1	inconclusive: 14.1 µM [inhibitor, single point]
Cc1ccccc1OCC(=O)NCC(=O)OC(c1ccccc1)c1ccccc1	inactive
Cc1ccc(S(=O)(=O)N2CCCN(S(=O)(=O)c3ccc(C(F)(F)F)cc3)CC2)cc1	inconclusive: 5.01 µM [inhibitor, full curve]
CCN(CC)S(=O)(=O)c1ccc(/C=C/C(=O)Nc2c(C)n(C)n(-c3ccccc3)c2=O)cc1	inconclusive: 3.55 µM [inhibitor, partial curve]
Cc1cccc2nc(-c3ccccc3)nc(N[C@@H](CO)c3ccccc3)c12	inconclusive: 10 µM [inhibitor, partial curve, poor fit]
O=C(NCc1cccs1)c1csc(COCCO)n1	inactive
COc1cc(OC)cc(-c2nnc(NC(=O)CCS(=O)(=O)c3ccc(F)cc3)o2)c1	inconclusive: 11.2 µM [inhibitor, partial curve, poor fit]
Cc1ccc(OCCCCNC2CCCCC2)c(C)c1	inconclusive: 35.5 µM [inhibitor, single point]
